Common to all, as to assay: Viability of human cancer cell lines after 72 h of drug (GDSC screen)
Compound in one assay: CCc1nc(N)nc(N)c1-c1ccc(Cl)cc1 [Pyrimethamine]
The note with it: top dose 20 µM; top dose inferred. How it is done: (§1)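 Human cancer cell lines in 384-well plates, medium with 10% serum, drug for 72 h over a 256-fold dose range (nine 2-fold or five 4-fold steps up to the top dose). Adherent lines were fixed and stained with the nucleic acid dye Syto60, suspension lines read with resazurin; signal relative to control wells, capped at 0 and 100%. One two-parameter sigmoid per drug and line, fitted in a mixed model over all curves with the slope shared within a line.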

Compound in a further assay: CC(C)CC(=O)Nc1n[nH]c2c1CN(C(=O)C1CCN(C)CC1)C2(C)C [PHA-793887]
The following applies: top dose 10.24 µM. How it is done: as §1

Compound in the next assay: C/C(=C\c1csc(C)n1)[C@@H]1C[C@@H]2O[C@]2(C)CCC[C@H](C)[C@H](O)[C@@H](C)C(=O)C(C)(C)[C@@H](O)CC(=O)O1 [Epothilone B]
The following applies: top dose 0.032 µM; top dose inferred. How it is done: as §1

Compound in the next assay: CN1CCN(CCOc2cc(OC3CCOCC3)c3c(Nc4c(Cl)ccc5c4OCO5)ncnc3c2)CC1 [AZD-0530]
The following applies: top dose 2 µM. The protocol:
as §1

Compound in the next assay: NC(=O)Nc1sc(-c2ccc(F)cc2)cc1C(N)=O [TPCA-1]
The note with it: top dose 20 µM. The protocol: as §1

Compound in another assay: C[C@@H](N)c1ccc(C(=O)Nc2ccnc3[nH]ccc23)cc1 [Y-39983]
The note with it: top dose 20 µM; top dose inferred. How it is done: as §1

Compound in another assay: CCCS(=O)(=O)Nc1ccc(F)c(C(=O)c2c[nH]c3ncc(Cl)cc23)c1F [PLX4720]
The note with it: top dose 10 µM. How it is done: as §1

The mark [1] stands for this setting: screen: GDSC drug entry 1371, top dose inferred.

The text below walks through data of the supplement of paper PMC4967469.

By IC50 is meant the dose at which the fit gives 50% viability; a limit (>, <) means that the fit lies beyond the doses tested. AUC is the area under the same curve over the 256-fold range up to the top dose, as a fraction; it is 1 without any effect and falls as sensitivity rises. For some assays here: An inferred top dose was calculated from the reported fits. For some assays here: Drugs with an entry number were screened twice under separate entries, and the two screens often disagree.

Take LB831-BLC (bladder, adherent): the AUC in the assay with Pyrimethamine was found to be 0.974; with PHA-793887 it was 0.903; with Epothilone B it was 0.643; with AZD-0530 it was 0.974; with TPCA-1, 0.829; with Y-39983, 0.832. Also, the AUC was determined as 0.955 in the assay with PLX4720 (screen: GDSC drug entry 1036) and 0.986 with PLX4720 (setting [1]). Moreover, the half-inhibitory concentration (IC50) with Pyrimethamine is over 20 µM; with PHA-793887 it was over 10.2 µM; in the assay with Epothilone B, 0.00501 µM; with AZD-0530, over 2 µM; in the assay with TPCA-1, 12.8 µM; in the assay with Y-39983, 13.1 µM. Also, the half-maximal inhibitory concentration (IC50) with PLX4720 (screen: GDSC drug entry 1036) and with PLX4720 (setting [1]) was over 10 µM throughout.
As to LB996-RCC (kidney, adherent), the AUC with Pyrimethamine was 0.973; with PHA-793887, 0.983; with Epothilone B it was 0.607; in the assay with AZD-0530 it was 0.695; in the assay with TPCA-1, 0.846; with Y-39983, 0.974. For the same cell line, the AUC came out at 0.923 with PLX4720 (screen: GDSC drug entry 1036) and 0.891 in the assay with PLX4720 (setting [1]). Further, the IC50 with Pyrimethamine was over 20 µM; in the assay with PHA-793887 it was over 10.2 µM; with Epothilone B, 0.00415 µM; with AZD-0530, 0.484 µM; in the assay with TPCA-1, 18.3 µM; in the assay with Y-39983, over 20 µM. Besides, the IC50 in the assay with PLX4720 (screen: GDSC drug entry 1036) and in the assay with PLX4720 (setting [1]) was over 10 µM in each case.
Turning to LB1047-RCC (kidney, adherent), the AUC was 0.971 in the assay with Pyrimethamine; 0.941 with PHA-793887; 0.494 in the assay with Epothilone B; 0.753 in the assay with AZD-0530; 0.742 with TPCA-1; 0.967 in the assay with Y-39983. The AUC with PLX4720 (screen: GDSC drug entry 1036) worked out at 0.893; with PLX4720 (setting [1]), 0.898. Moreover, the concentration for half-maximal inhibition (IC50) with Pyrimethamine was over 20 µM; with PHA-793887, over 10.2 µM; with Epothilone B, 0.00192 µM; in the assay with AZD-0530, 0.742 µM; in the assay with TPCA-1, 6.8 µM; with Y-39983, over 20 µM. Also, the IC50 with PLX4720 (screen: GDSC drug entry 1036) and in the assay with PLX4720 (setting [1]) was over 10 µM each time.
Turning to LC-2-ad (lung adenocarcinoma, adherent), the AUC with Pyrimethamine is 0.926; with PHA-793887, 0.602; with Epothilone B, 0.133; with AZD-0530, 0.903; with TPCA-1, 0.541; in the assay with Y-39983 it was 0.863. The AUC with PLX4720 (screen: GDSC drug entry 1036) turned out to be 0.944; with PLX4720 (setting [1]), 0.967. The IC50 with Pyrimethamine is over 20 µM; with PHA-793887, 1.23 µM; with Epothilone B it was 0.000133 µM; with AZD-0530, over 2 µM; in the assay with TPCA-1, 1.62 µM; in the assay with Y-39983 it was 18 µM. For the same cell line, the IC50 in the assay with PLX4720 (screen: GDSC drug entry 1036) and with PLX4720 (setting [1]) was over 10 µM throughout.
With LNCaP-Clone-FGC (prostate, adherent), the AUC with Pyrimethamine was 0.859; with PHA-793887, 0.64; with Epothilone B, 0.658; with AZD-0530, 0.984; in the assay with TPCA-1 it was 0.848; with Y-39983 it was 0.798. Moreover, the AUC with PLX4720 (screen: GDSC drug entry 1036) is 0.984; with PLX4720 (setting [1]), 0.945. The 50% inhibitory concentration (IC50) is over 20 µM with Pyrimethamine; 1.65 µM with PHA-793887; 0.00586 µM in the assay with Epothilone B; over 2 µM in the assay with AZD-0530; 18.2 µM with TPCA-1; 11.1 µM with Y-39983. The concentration for half-maximal inhibition (IC50) in the assay with PLX4720 (screen: GDSC drug entry 1036) and with PLX4720 (setting [1]) was over 10 µM each time.
For “LOUCY (T-cell lymphoblastic leukaemia, suspension)”, the AUC amounted to 0.835 with Pyrimethamine; 0.493 with PHA-793887; 0.593 with Epothilone B; 0.992 in the assay with AZD-0530; 0.513 in the assay with TPCA-1; 0.857 with Y-39983. The AUC with PLX4720 (setting [1]) is 0.972. Besides, the IC50 with Pyrimethamine was 9.88 µM; with PHA-793887, 0.614 µM; with Epothilone B, 0.00343 µM; with AZD-0530, over 2 µM; with TPCA-1, 1.35 µM; in the assay with Y-39983, 11.7 µM. The IC50 in the assay with PLX4720 (setting [1]) is over 10 µM.
In the case of LP-1 (myeloma, suspension), the AUC was found to be 0.98 in the assay with Pyrimethamine; 0.636 with PHA-793887; 0.972 with Epothilone B; 0.993 with AZD-0530; 0.926 with TPCA-1; 0.977 with Y-39983. Moreover, the AUC in the assay with PLX4720 (screen: GDSC drug entry 1036) amounted to 0.973; in the assay with PLX4720 (setting [1]) it was 0.97. Moreover, the 50% inhibitory concentration (IC50) in the assay with Pyrimethamine is over 20 µM; with PHA-793887 it was 1.42 µM; with Epothilone B, over 0.032 µM; with AZD-0530, over 2 µM; with TPCA-1, over 20 µM; with Y-39983, over 20 µM. In addition, the IC50 with PLX4720 (screen: GDSC drug entry 1036) and with PLX4720 (setting [1]) was over 10 µM each time.
